# From the supplement of paper PMC9135407
# “And” between values parts separate entries of the source, which are not always exact repeats. Identical values can stand only once. Counter-ions that a name gives are not always drawn. Among all 5,800 compounds or so, about 620 (11%) showed activity.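 Rule for the calls: active = score above a cut-off or among the top three wells of a plate; in these data no inactive exceeds 0.85.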 Only a part is listed here, and it is no random draw.
# Test system: primary human hepatic stellate cells (donor 1)
# Assay: scaled lipid accumulation score (0 = DMSO-like, 1 = nortriptyline-like); higher = stronger HSC inactivation (lipid re-accumulation), active = hit call of the paper
# Conditions: 48 h
# [1] = library stock concentration: 3.33 mM
# [2] = library stock concentration: 10 mM
# [3] = library stock concentration: 1 mM
# [4] = library stock concentration: 80 uM
# [5] = library stock concentration: 400 uM
structure (smiles),measurement,setting,value
NCCC[C@H](N)CC(=O)N[C@H]1CNC(=O)[C@H]([C@H]2C[C@H](O)NC(N)=N2)NC(=O)/C(=C/NC(N)=O)NC(=O)[C@H](CO)NC(=O)[C@H](CO)NC1=O [Viomycin sulfate],scaled lipid accumulation score,,inactive: ≤ 0
CCCC(=O)OCOC(=O)C1=C(C)NC(C)=C(C(=O)OC)C1c1cccc(Cl)c1Cl (configuration not stated) [Clevidipine Butyrate],scaled lipid accumulation score,[1],inactive: ≤ 0
same,scaled lipid accumulation score,[2],inactive: ≤ 0
O=C1OC(CN2CCOCC2)CN1/N=C/c1ccc([N+](=O)[O-])o1 (configuration not stated),scaled lipid accumulation score,[2],inactive: ≤ 0
O=C1OC(CN2CCOCC2)CN1/N=C/c1ccc([N+](=O)[O-])o1 (configuration not stated) [Furaltadone HCl],scaled lipid accumulation score,[1],inactive: ≤ 0
same,scaled lipid accumulation score,[2],inactive: ≤ -0.001
O=C1OC(CN2CCOCC2)CN1/N=C/c1ccc([N+](=O)[O-])o1 (configuration not stated) [Furaltadone hydrochloride],scaled lipid accumulation score,,inactive: ≤ 0
CC[n+]1c(-c2ccccc2)c2cc(N)ccc2c2ccc(N)cc21 [Homidium bromide],scaled lipid accumulation score,[2],inactive: 0.654
Cc1ccc(-c2c(-c3nn(C)c4ncnc(N5CC[C@H](N6CCCCC6)C5)c34)cnn2C)cc1,scaled lipid accumulation score,[1],inactive: ≤ 0
same,scaled lipid accumulation score,[2],inactive: 0.091
CCOC(=O)/C=C/[C@H](CC(C)C)NC(=O)[C@H](CO)NC(=O)[C@@H](NC(=O)c1cccc(O)c1C)C(C)C,scaled lipid accumulation score,[3],inactive: ≤ 0
COc1ccc(CCC(C)NC2CC(C)(C)NC(C)(C)C2)cc1 (configuration not stated),scaled lipid accumulation score,[2],active: 0.998
O=C1c2c(O)cc(O)cc2O[C@H](c2cc(O)c(O)c(O)c2)[C@H]1O [Dihydromyricetin],scaled lipid accumulation score,[1],inactive: ≤ 0
same,scaled lipid accumulation score,[2],inactive: ≤ 0
CNCCCN1c2ccccc2CCc2ccccc21 [Desipramine hydrochloride],scaled lipid accumulation score,library stock concentration: 6.6 mM,inactive: 0.471
same,scaled lipid accumulation score,[2],inactive: 0.667
CC(C)(C(=O)NCC(F)(F)C(F)(F)F)C(=O)N[C@@H]1C(=O)Nc2ccccc2-c2ccccc21,scaled lipid accumulation score,[1],inactive: ≤ 0
same,scaled lipid accumulation score,[2],inactive: ≤ 0
O=C(O)CCNC(=O)c1ccc(/N=N/c2ccc(O)c(C(=O)O)c2)cc1 [Balsalazide Sodium],scaled lipid accumulation score,,inactive: 0.061
O=C(O)CCNC(=O)c1ccc(/N=N/c2ccc(O)c(C(=O)O)c2)cc1,scaled lipid accumulation score,[2],inactive: ≤ 0
COc1cc(Nc2ncc(F)c(Nc3ccc4c(n3)NC(=O)C(C)(C)O4)n2)cc(OC)c1OC.O=S(=O)(O)c1ccccc1,scaled lipid accumulation score,[2],active: 0.882
CCOc1cc(N)c(Cl)cc1C(=O)NCC1CN(Cc2ccc(F)cc2)CCO1 (configuration not stated),scaled lipid accumulation score,[2],inactive: ≤ 0
CCOc1cc(N)c(Cl)cc1C(=O)NCC1CN(Cc2ccc(F)cc2)CCO1 (configuration not stated) [Mosapride Citrate],scaled lipid accumulation score,[1],inactive: 0.016
same,scaled lipid accumulation score,[2],inactive: 0.048
CCC(C)n1ncn(-c2ccc(N3CCN(c4ccc(OCC5COC(Cn6cncn6)(c6ccc(Cl)cc6Cl)O5)cc4)CC3)cc2)c1=O (configuration not stated) [Itraconazole],scaled lipid accumulation score,library stock concentration: 2.8 mM,inactive: ≤ 0
same,scaled lipid accumulation score,[1],inactive: 0.492
same,scaled lipid accumulation score,[2],inactive: 0.522
Cc1cccc(Nc2ccccc2C(=O)O)c1C [Mefenamic Acid],scaled lipid accumulation score,[1],inactive: ≤ 0
same,scaled lipid accumulation score,[2],inactive: ≤ -0.001
Cc1cccc(Nc2ccccc2C(=O)O)c1C [Mefenamic acid],scaled lipid accumulation score,,inactive: ≤ 0
same,scaled lipid accumulation score,library stock concentration: 8.3 mM,inactive: ≤ 0
same,scaled lipid accumulation score,[2],inactive: 0.083
Cc1cccc(Nc2ccccc2C(=O)O)c1C,scaled lipid accumulation score,[2],inactive: ≤ 0
CCCCC[C@@H](O)/C=C/[C@H]1C(=O)C[C@H](O)[C@@H]1C/C=C\CCCC(=O)O [15(R)-Prostaglandin D2],scaled lipid accumulation score,[3],inactive: ≤ 0
C[n+]1ccccc1/C=N/O,scaled lipid accumulation score,[2],inactive: ≤ 0
C[n+]1ccccc1/C=N/O [Pralidoxime chloride],scaled lipid accumulation score,,inactive: ≤ 0
same,scaled lipid accumulation score,library stock concentration: 11.6 mM,inactive: ≤ 0
CCCCCCCCCCCCCCCC(=O)NC(CO)CO [Palmitoyl Serinol],scaled lipid accumulation score,[3],inactive: 0.026
CCCCC/C=C\C/C=C\C/C=C\C/C=C\CCCCN1C(=O)C=CC1=O [N-Arachidonyl Maleimide],scaled lipid accumulation score,[3],inactive: ≤ 0
Cl[H].CN1CC\C(=C(/c2c(cccc2)C=C3)\c(cccc4)c34)\CC1 [Cyproheptadine hydrochloride],scaled lipid accumulation score,[2],active: 1.04
CC(N)C(=O)OC(C)(C)Cc1ccc(Cl)cc1 (configuration not stated) [Alaproclate hydrochloride],scaled lipid accumulation score,[2],inactive: 0.774
CC(N)C(=O)OC(C)(C)Cc1ccc(Cl)cc1 (configuration not stated) [Alaproclate],scaled lipid accumulation score,[2],inactive: 0.165
CC(NC(=O)Cc1cc(F)cc(F)c1)C(=O)NC1C(=O)N(C)c2ccccc2-c2ccccc21 (configuration not stated),scaled lipid accumulation score,[1],inactive: ≤ 0
same,scaled lipid accumulation score,[2],inactive: 0.235
CN(CCOc1ccc(C[C@H](Nc2ccccc2C(=O)c2ccccc2)C(=O)O)cc1)c1ccccn1,scaled lipid accumulation score,[2],inactive: 0.02
CCN(CC)CCNC(=O)COc1ccc(OC)cc1 [Mefexamide],scaled lipid accumulation score,library stock concentration: 6.3 mM,inactive: 0.018
same,scaled lipid accumulation score,[2],inactive: ≤ 0
CCN(CC)CCNC(=O)COc1ccc(OC)cc1 [Mefexamide hydrochloride],scaled lipid accumulation score,,inactive: ≤ 0
C=CCn1c(=O)c2cnc(Nc3ccc(N4CCN(C)CC4)cc3)nc2n1-c1cccc(C(C)(C)O)n1,scaled lipid accumulation score,[4],inactive: ≤ -0.009
same,scaled lipid accumulation score,[5],inactive: 0.06
same,scaled lipid accumulation score,library stock concentration: 2 mM,inactive: 0.137
same,scaled lipid accumulation score,[1],inactive: ≤ 0
same,scaled lipid accumulation score,[2],inactive: ≤ 0 and inactive: 0.188
CCOc1ccc(NC(=O)CC(C)O)cc1 (configuration not stated),scaled lipid accumulation score,[2],inactive: ≤ 0
Clc1ccc(C(Cn2ccnc2)OCc2csc3c(Cl)cccc23)c(Cl)c1 (configuration not stated) [Sertaconazole nitrate],scaled lipid accumulation score,,inactive: ≤ 0
same,scaled lipid accumulation score,[1],inactive: ≤ 0
same,scaled lipid accumulation score,[2],inactive: 0.479
CC(=O)OCC1=C(C(=O)O)N2C(=O)[C@@H](NC(=O)Cc3cccs3)[C@H]2SC1 [Cephalothin sodium salt],scaled lipid accumulation score,,inactive: ≤ 0
CC(=O)OCC1=C(C(=O)O)N2C(=O)[C@@H](NC(=O)Cc3cccs3)[C@H]2SC1 [Cephalothin sodium],scaled lipid accumulation score,library stock concentration: 4.8 mM,inactive: ≤ -0.001
same,scaled lipid accumulation score,[2],inactive: ≤ 0 and inactive: 0.057
O=C(Nc1cccc2cccnc12)c1ccc(N2C(=O)[C@@H]3[C@H](C2=O)[C@@H]2C=C[C@H]3C2)cc1 [endo-IWR 1],scaled lipid accumulation score,[2],inactive: ≤ -0.001
CN(C)CCCN1c2ccccc2CCc2ccc(Cl)cc21.Cl [Clomipramine HCl],scaled lipid accumulation score,[2],active: 0.83
CC1(C)S[C@@H]2[C@H](NC(=O)Cc3ccccc3)C(=O)N2[C@H]1C(=O)O [Benzylpenicillin sodium],scaled lipid accumulation score,,inactive: ≤ 0
CC1(C)S[C@@H]2[C@H](NC(=O)Cc3ccccc3)C(=O)N2[C@H]1C(=O)O [Benzathine benzylpenicillin],scaled lipid accumulation score,,inactive: ≤ 0
CC1(C)S[C@@H]2[C@H](NC(=O)Cc3ccccc3)C(=O)N2[C@H]1C(=O)O [Penicillin g potassium],scaled lipid accumulation score,library stock concentration: 5.4 mM,inactive: ≤ -0.001
CC1(C)S[C@@H]2[C@H](NC(=O)Cc3ccccc3)C(=O)N2[C@H]1C(=O)O [Penicillin G Sodium],scaled lipid accumulation score,[1],inactive: ≤ 0
same,scaled lipid accumulation score,[2],inactive: ≤ -0.001
CC1(C)S[C@@H]2[C@H](NC(=O)Cc3ccccc3)C(=O)N2[C@H]1C(=O)O [Pfizerpen],scaled lipid accumulation score,[2],inactive: ≤ 0
CC1(C)S[C@@H]2[C@H](NC(=O)Cc3ccccc3)C(=O)N2[C@H]1C(=O)O [Benzyl penicillin potassium],scaled lipid accumulation score,[2],inactive: ≤ 0
CCCCc1nc(Cl)c(CO)n1Cc1ccc(-c2ccccc2-c2nnn[nH]2)cc1 [Losartan],scaled lipid accumulation score,library stock concentration: 4.7 mM,inactive: ≤ 0
same,scaled lipid accumulation score,[2],inactive: ≤ -0.027
CCCCc1nc(Cl)c(CO)n1Cc1ccc(-c2ccccc2-c2nnn[nH]2)cc1 [LOSARTAN Potassium],scaled lipid accumulation score,[2],inactive: ≤ 0
CCCCc1nc(Cl)c(CO)n1Cc1ccc(-c2ccccc2-c2nnn[nH]2)cc1 [Losartan Potassium (DuP 753)],scaled lipid accumulation score,[1],inactive: ≤ 0
same,scaled lipid accumulation score,[2],inactive: ≤ 0
COc1cc(Nc2ncc3ccn(-c4cccc(CCC#N)c4)c3n2)cc(OC)c1OC [Keratinocyte Differentiation Inducer],scaled lipid accumulation score,[1],inactive: 0.501 and inactive: ≤ 0
O=C1CCC(N2C(=O)c3ccccc3C2=O)C(=O)N1 (configuration not stated) [Thalidomide],scaled lipid accumulation score,,inactive: ≤ 0
same,scaled lipid accumulation score,[1],inactive: 0.023
same,scaled lipid accumulation score,library stock concentration: 7.7 mM,inactive: ≤ 0
same,scaled lipid accumulation score,library stock concentration: 19.4 mM,inactive: ≤ -0.012
O=C1CCC(N2C(=O)c3ccccc3C2=O)C(=O)N1 (configuration not stated) [(?)-Thalidomide],scaled lipid accumulation score,[2],inactive: ≤ 0
O=C(OC[C@@H]1O[C@H]1c1ccccc1)Oc1ccc([N+](=O)[O-])cc1,scaled lipid accumulation score,[3],inactive: ≤ 0
CSc1ccccc1N1CCN(CCCCCC(=O)NC2CCCc3ccccc32)CC1.Cl (configuration not stated),scaled lipid accumulation score,[2],active: 1.06
c1cn2cc(-c3ccc4cn[nH]c4c3)nc(Nc3ccc(N4CCOCC4)cc3)c2n1 [Entospletinib],scaled lipid accumulation score,[4],inactive: ≤ 0
same,scaled lipid accumulation score,[5],inactive: 0.023
CCCCCCCCCCOCCC(=O)O [4-Oxatetradecanoic acid],scaled lipid accumulation score,[3],inactive: 0.156
CN/C(=N\c1ccc(C2=NNC(=O)CC2C)cc1)NC#N (configuration not stated) [Siguazodan],scaled lipid accumulation score,library stock concentration: 7 mM,inactive: ≤ 0
same,scaled lipid accumulation score,[2],inactive: 0.01
COc1nc(N)nc2c1ncn2[C@@H]1O[C@H](CO)[C@@H](O)[C@@H]1O [Nelarabine],scaled lipid accumulation score,[1],inactive: ≤ 0
same,scaled lipid accumulation score,[2],inactive: ≤ 0
O=C(CCCN1CCC(O)(c2cccc(C(F)(F)F)c2)CC1)c1ccc(F)cc1 [Trifluperidol 2HCl],scaled lipid accumulation score,library stock concentration: 4.9 mM,inactive: 0.327
O=C1NC(=O)c2c1c1c3ccccc3[nH]c1n1cncc21 [Isogranulatimide],scaled lipid accumulation score,[1],inactive: ≤ 0
CN(C)CCCn1cc(C2=C(c3c[nH]c4ccccc34)C(=O)NC2=O)c2ccccc21,scaled lipid accumulation score,[1],inactive: 0.071
same,scaled lipid accumulation score,[2],inactive: 0.777
same,scaled lipid accumulation score,library stock concentration: 12.1 mM,inactive: 0.519
CN(C)CCCn1cc(C2=C(c3c[nH]c4ccccc34)C(=O)NC2=O)c2ccccc21 [Bisindolylmaleimide I],scaled lipid accumulation score,[1],inactive: 0.663
O=c1c2ccccc2nc2n1CCc1c-2[nH]c2ccccc12 [Rutaecarpine],scaled lipid accumulation score,[1],inactive: ≤ 0
same,scaled lipid accumulation score,[2],inactive: 0.58
